From the supplement of paper PMC3334620
Whole data set: some 33,000 sequences, median “E-score (-0.5 to 0.5)” near -0.035, cut for the highest 2% near 0.35. This is one part of the list.

What follows are sequences tested against T1, Pdr3 (UniProt P33200) (assay: PBM E-score (8-mer binding enrichment) (E-score (-0.5 to 0.5)); higher = stronger / more preferred TF binding; most listed sequences are background and not binding sites). Conditions: protein concentration: 200 nM; construct: GST-full length.
T1 sequence: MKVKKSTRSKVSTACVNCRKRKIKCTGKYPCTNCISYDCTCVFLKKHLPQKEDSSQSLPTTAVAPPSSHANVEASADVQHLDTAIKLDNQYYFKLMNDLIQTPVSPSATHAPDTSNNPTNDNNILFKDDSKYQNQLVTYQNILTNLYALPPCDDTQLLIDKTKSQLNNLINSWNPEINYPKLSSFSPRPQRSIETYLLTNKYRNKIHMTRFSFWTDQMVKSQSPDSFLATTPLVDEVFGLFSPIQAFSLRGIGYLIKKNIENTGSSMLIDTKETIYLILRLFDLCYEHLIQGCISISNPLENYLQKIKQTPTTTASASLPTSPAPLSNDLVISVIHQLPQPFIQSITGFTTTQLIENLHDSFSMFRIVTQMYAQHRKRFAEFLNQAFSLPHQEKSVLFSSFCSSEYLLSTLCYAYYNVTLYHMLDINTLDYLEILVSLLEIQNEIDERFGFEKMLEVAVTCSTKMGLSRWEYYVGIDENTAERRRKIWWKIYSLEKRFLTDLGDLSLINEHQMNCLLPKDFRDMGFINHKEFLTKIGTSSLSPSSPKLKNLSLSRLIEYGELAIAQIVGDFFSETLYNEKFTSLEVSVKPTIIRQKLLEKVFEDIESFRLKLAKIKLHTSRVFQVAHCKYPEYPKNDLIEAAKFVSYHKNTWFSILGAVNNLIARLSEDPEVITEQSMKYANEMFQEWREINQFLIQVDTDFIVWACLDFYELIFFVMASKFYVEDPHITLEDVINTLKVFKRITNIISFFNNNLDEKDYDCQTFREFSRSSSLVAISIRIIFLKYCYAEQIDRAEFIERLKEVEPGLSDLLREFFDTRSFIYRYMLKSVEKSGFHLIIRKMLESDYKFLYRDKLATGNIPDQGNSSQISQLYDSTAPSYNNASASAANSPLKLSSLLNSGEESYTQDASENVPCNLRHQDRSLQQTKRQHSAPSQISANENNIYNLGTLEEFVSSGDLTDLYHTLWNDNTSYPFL
Summary of the method: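 Using PURExpress in vitro transcription/translation, GST-tagged yeast transcription factors were made in full-length or DNA-binding-domain form. These were applied at about 100-200 nM to double-stranded universal all-10-mer Agilent arrays, and bound protein was detected with fluorescent anti-GST. Scans were normalised with masliner before the Universal PBM Analysis Suite assigned E-scores to ungapped eight-base words pooled with their reverse complements.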

Sequence | PBM E-score
CAGTTTCG | -0.0271
CTTCTGTA | -0.135
AACGCGTC | 0.0596
AAAACATC | -0.128
CAACAGAG | -0.0573
GCGAAATA | 0.0781
CCATACCC | 0.0565
CGGAGACA | 0.327
CTGTGGGC | -0.105
GGCACCGA | 0.0414
AGGAGGGC | -0.166
CTGGGAGC | -0.192
CCATTCCA | 0.0798
ACCCTTAT | -0.181
CCCCCGGA | 0.311
AATCGCGC | 0.247
AAAATTCG | 0.0531
CGCGGTGA | 0.176
GAAGCAAC | 0.0104
AAACGAAA | 0.0527
AAGCTCAG | -0.171
TAAGCTCA | -0.11
CGTTTGAG | -0.0857
CCACACGA | -0.228
GAACTTCC | 0.241

Sequence | PBM E-score
AGATATCA | 0.0104
TGGTATAA | 0.00154
CATAACGC | -0.102
CATAGCGC | 0.165
GATATACC | 0.132
AAACTTCC | 0.0751
AACGCGTT | 0.14
GTTCCCCA | -0.173
TAGGAACA | -0.0452
GATGTGAA | -0.0111
GATTCAAA | -0.124
CATCCCAC | -0.0306
ACTAATGG | 0.0371
GATAGTGC | -0.0798
CGGCGCCA | 0.171
ACGCCCCG | 0.181
CCTGACAC | -0.0728
CAGAGCCG | 0.0998
ATACCTAG | -0.0445
AAGAGGAG | -0.0754
AGTGTGTA | -0.121
GAGTTATC | 0.159
CACCTTTA | 0.0126
GTAATTGA | 0.0657
GATTTACC | 0.158

Sequence | PBM E-score
CTAGCTAC | -0.233
ATGGCAAT | -0.00119
GACCGGGA | 0.304
AATGTCCA | -0.11
CAAATTCA | -0.0277
AACAAGCT | 0.0568
GTTTGGGA | -0.013
ACACCACT | 0.108
CCACCCGC | 0.296
AGCACTGG | -0.111
CCACTGAG | -0.158
GATCCAAA | 0.064
TACTACTA | 0.141
AGCTCACC | -0.0527
AGTCCGAG | 0.281
ACAACCAT | 0.149
ACACTCGT | -0.195
CTCATCTA | -0.185
TACCGGGA | 0.347
AGTACAGA | -0.0546
AACATTAA | -0.0603
CGAATCAG | -0.133
ACCGCATC | 0.198
CGCGATTC | 0.254
AGATCACC | 0.0531

Sequence | PBM E-score
GACTCTTA | -0.135
CCCTGAAC | -0.013
CTCTGAGA | -0.238
AGGCGTCC | -0.0756
GGCGGAAC | 0.467
CATCCAGC | -0.137
CCATGGCC | -0.0466
GAGCTAGA | -0.248
AACAAAAG | -0.266
CGTGTATA | -0.0324
ATAGCGCA | -0.111
AAGCGAAG | -0.0806
ATGTCTTG | -0.0696
AGTGAATG | 0.168
ACAATCAT | -0.139
GCGCAAGA | 0.0091
TACGATCA | -0.0678
CTGCCTTC | -0.0663
GCTCACCC | 0.118
CGGGTCAG | 0.285
CGCGAAAG | -0.0147
CTTACTAA | -0.0756
GATGAGAC | 0.031
CCTATTGA | -0.135
AGACCTAT | -0.0458

Sequence | PBM E-score
AAGCCCAT | -0.0885
AACATCAT | -0.0867
AAGGCCAA | -0.156
TGACGCCA | -0.264
GAGCCGAC | -0.104
CGCCTATA | -0.018
CCTACACC | -0.133
GCCTTAGA | -0.136
CATATGGA | -0.149
AAATTAAT | -0.0501
GACGGAGA | 0.322
ACTAACCC | -0.0175
AGTCATCG | -0.0299
TCGTGTAA | -0.0424
CTGAGAAG | -0.16
ATTGCCCA | -0.0638
GCGCCAGA | 0.00439
TCCATTAA | 0.0368
AAAGTGCG | 0.054
GTATCCAC | -0.105
TTAGCAAA | -0.0871
GACATAGA | -0.149
CTCAAAAG | -0.026
CGTATGCC | -0.0233
TACCGCCA | 0.146

Sequence | PBM E-score
TGTACAAA | 0.035
AGCTCTGC | -0.217
AGCTTGCG | -0.264
AATGTAGA | -0.0731
AGAGTTAG | -0.0312
CTGTATAA | -0.0666
ATTCATAG | -0.127
GCTTGTAC | 0.00241
CAATTGGC | -0.0526
CCGGAGCA | 0.401
ACCGAACA | 0.0134
CGCAGCCA | -0.0325
TCACAAGA | -0.0373
ATGCGTAC | -0.141
GTTTGCGA | -0.00951
CGCCGAAC | 0.265
CTGATGAA | -0.179
AACCTGTC | -0.153
ATTCGACC | -0.0489
CGCGTTCC | 0.259
TGTAATAA | -0.209
GAGTGAGA | -0.0116
ATAGCCAT | -0.00901
AGTTGGGA | -0.205
CTACCAGA | -0.0896

Sequence | PBM E-score
ACGACACA | -0.146
ATAGCTCG | -0.11
CAAGTAAG | -0.231
AAACGATT | -0.0503
CAGCGAGG | -0.0395
GCATCTGA | -0.143
CCATTTGC | -0.0876
ACGAACCA | 0.0351
AGATTCCT | -0.088
GCCTATAC | -0.0916
CAAGGTGA | -0.107
ATAACCGA | -0.0923
GCAGTGCC | -0.0598
ATATGTCA | 0.0771
GGTCACGA | -0.0529
CGGCAGAA | 0.287
TGGAACCA | 0.188
GTTATCCA | 0.0459
CCATAGAC | -0.189
AATTCATA | 0.0003
CCAGTTAA | 0.112
CCAAACAG | -0.123
